pIC50: −log10 of the molar value. Read-outs that look alike come from different tables or passages of the source.
Tests used:
BRD4 BD1 [1] = target: T1, BRD4 BD1 (Homo sapiens (Human), UniProt O60885); experiment: biochemical
BRD4 BD1 [2] = target: T1, BRD4 BD1; details: read-out: BRD4 Alpha IC50
MYC = experiment: cells; details: Homo sapiens, MV4-11, 4 h, read-out: Myc IC50 (μM)

How did the pIC50 (BRD4 BD1 [1]) turn out when `CC(=O)Nc1ccc(-c2ccc3c(c2)CCCN3c2nn(C3CCOCC3)c3c2CN(C(C)=O)CC3)cn1` [Example 61, N-[5-[1-(5-acetyl-1-tetrahydropyran-4-yl-6,7-dihydro-4H-pyrazolo[4,3-c]pyridin-3-yl)-3,4-dihydro-2H-quinolin-6-yl]-2-pyridyl]acetamide] was run?
The pIC50 was under 4.70.

With `CC(=O)N1CCc2c(c(N3CCCc4cc(-c5cncc(S(C)(=O)=O)c5)ccc43)nn2C2COC2)C1` [Example 43, 1-[3-[6-(5-methylsulfonyl-3-pyridyl)-3,4-dihydro-2H-quinolin-1-yl]-1-(oxetan-3-yl)-6,7-dihydro-4H-pyrazolo[4,3-c]pyridin-5-yl]ethanone] as the compound, how does the pIC50 (BRD4 BD1 [1]) read?
Its pIC50 is under 4.70.

`CC(=O)N1CCc2c(c(N3CCCc4cc(-c5cn(C)nc5C#N)ccc43)nn2C2COC2)C1` [Example 34, 4-[1-[5-acetyl-1-(oxetan-3-yl)-6,7-dihydro-4H-pyrazolo[4,3-c]pyridin-3-yl]-3,4-dihydro-2H-quinolin-6-yl]-1-methyl-pyrazole-3-carbonitrile] was tested. Which pIC50 (BRD4 BD1 [1]) did it give?
The pIC50 was under 4.70.

What does the source list for `CC(=O)N1CCc2c(c(Nc3ccc(-c4c[nH]nc4C(F)F)cc3F)nn2C2CCOC2)C1` (stereo not shown) [Example 246, 1-[3-[7-methyl-6-(1-methylpyrazol-4-yl)-3,4-dihydro-2H-quinolin-1-yl]-1-tetrahydropyran-4-yl-6,7-dihydro-4H-pyrazolo[4,3-c]pyridin-5-yl]ethanone]?
pIC50 (BRD4 BD1 [2]): 5.37; IC50 (MYC): 0.49 µM

With `CC(=O)N1CCc2c(c(Nc3ccc(-c4cnn(CC(F)(F)F)c4)cc3)nn2C)C1` [Example 108, 1-[3-[4-ethyl-6-(1-methylpyrazol-4-yl)-3,4-dihydro-2H-quinolin-1-yl]-1-tetrahydrofuran-3-yl-6,7-dihydro-4H-pyrazolo[4,3-c]pyridin-5-yl]ethanone] as the compound, how does the pIC50 (BRD4 BD1 [2]) read?
Its pIC50 is 5.04.

And the IC50 (MYC)?
The IC50 was 1.09 µM.

`CC(=O)N1CCc2c(c(N3CCCc4cc(-c5ccncc5)ccc43)nn2C2COC2)C1` [Example 8, 1-[1-(oxetan-3-yl)-3-[6-(4-pyridyl)-3,4-dihydro-2H-quinolin-1-yl]-6,7-dihydro-4H-pyrazolo[4,3-c]pyridin-5-yl]ethanone] was tested. Which pIC50 (BRD4 BD1 [1]) did it give?
Its pIC50 is under 4.70.

With `CC(=O)N1CCc2c(c(Nc3ccc(-c4cnn(CC(C)C)c4)cc3)nn2C)C1` [Example 164, 3-(6-(difluoromethyl)-5-(1-methyl-1H-pyrazol-4-yl)indolin-1-yl)-N-methyl-1-(tetrahydro-2H-pyran-4-yl)-6,7-dihydro-1H-pyrazolo[4,3-c]pyridine-5(4H)-carboxamide] as the compound, how does the pIC50 (BRD4 BD1 [2]) read?
Its pIC50 is 5.29.

And the IC50 (MYC)?
Its IC50 is 1.07 µM.

How did the pIC50 (BRD4 BD1 [2]) turn out when `CNC(=O)N1CCc2c(c(Nc3ccc(-c4cnn(C)c4)c(F)c3F)nn2C2CCOCC2)C1` [Example 264, (R)-4-(5-acetyl-1-tetrahydropyran-4-yl-6,7-dihydro-4H-pyrazolo[4,3-c]pyridin-3-yl)-1,2-dimethyl-7-(l-methylpyrazol-4-yl)-2,3-dihydroquinoxaline-6-carbonitrile] was run?
The pIC50 was under 4.70.

What about the IC50 (MYC) of the same compound?
The IC50 was 0.95 µM.

How did the pIC50 (BRD4 BD1 [2]) turn out when `CC(=O)N1CCc2c(c(Nc3ccc(-c4cn(C)nn4)cc3F)nn2C2CCOC2)C1` (stereo not shown) [Example 286, 1-[3-[2-fluoro-4-(1-methyltriazol-4-yl)anilino]-1-tetrahydrofuran-3-yl-6,7-dihydro-4H-pyrazolo[4,3-c]pyridin-5-yl]ethanone] was run?
Its pIC50 is 5.07.

What about the IC50 (MYC) of the same compound?
The IC50 was 1.06 µM.

`CC(=O)N1CCc2c(c(Nc3ccc(-c4cnn(C)c4C(F)(F)F)cc3)nn2C2CCOC2)C1` (stereo not shown) [Example 295, 1-[3-[4-[1-methyl-5-(trifluoromethyl)pyrazol-4-yl]anilino]-1-tetrahydrofuran-3-yl-6,7-dihydro-4H-pyrazolo[4,3-c]pyridin-5-yl]ethanone] was tested. Which pIC50 (BRD4 BD1 [2]) did it give?
The pIC50 was 5.70.

And the IC50 (MYC)?
Its IC50 is 0.16 µM.

With `CC(=O)N1CCc2c(c(Nc3ccc(-c4cnn(C)c4)c(F)c3)nn2C(C)CO)C1` (stereo not shown) [Example 275, 3-[6-cyano-7-(1-methylpyrazol-4-yl)-2,3-dihydro-1,4-benzoxazin-4-yl]-N-methyl-1-tetrahydropyran-4-yl-6,7-dihydro-4H-pyrazolo[4,3-c]pyridine-5-carboxamide] as the compound, how does the pIC50 (BRD4 BD1 [2]) read?
The pIC50 was 5.31.

What about the IC50 (MYC) of the same compound?
Its IC50 is 0.27 µM.

`CC(=O)N1CCc2c(c(Nc3ccc(-c4cnn(C)c4)cc3F)nn2C2CCOCC2)C1` [Example 304, 1-[3-[2-fluoro-4-(1-methylpyrazol-4-yl)anilino]-1-tetrahydropyran-4-yl-6,7-dihydro-4H-pyrazolo[4,3-c]pyridin-5-yl]ethanone] was tested. Which pIC50 (BRD4 BD1 [2]) did it give?
The pIC50 was 5.05.

What about the IC50 (MYC) of the same compound?
Its IC50 is 0.19 µM.

With `CC(=O)N1CCc2c(c(Nc3ccc(-c4ccc(N)nc4)cc3)nn2C)C1` [Example 157, 3-[7-(difluoromethoxy)-6-(1-methylpyrazol-4-yl)-3,4-dihydro-2H-quinolin-1-yl]-N-methyl-1-tetrahydropyran-4-yl-6,7-dihydro-4H-pyrazolo[4,3-c]pyridine-5-carboxamide] as the compound, how does the pIC50 (BRD4 BD1 [2]) read?
The pIC50 was 5.34.

What about the IC50 (MYC) of the same compound?
Its IC50 is 0.69 µM.

Which results are given for `CC(=O)N1CCc2c(c(Nc3ccc(-c4cnn(C)c4)c(C(F)F)c3)nn2C2CCOC2)C1` (stereo not shown) [Example 289, 1-[3-[3-(difluoromethyl)-4-(1-methylpyrazol-4-yl)anilino]-1-tetrahydrofuran-3-yl-6,7-dihydro-4H-pyrazolo[4,3-c]pyridin-5-yl]ethanone]?
pIC50 (BRD4 BD1 [2]): 5.81; IC50 (MYC): 0.04 µM

`CC(=O)N1CCc2c(c(Nc3ccc(-c4cccc(CO)c4)cc3)nn2CC2CC2)C1` [Example 92, 1-[3-[3-(methoxymethyl)-6-(1-methylpyrazol-4-yl)-3,4-dihydro-2H-quinolin-1-yl]-1-tetrahydrofuran-3-yl-6,7-dihydro-4H-pyrazolo[4,3-c]pyridin-5-yl]ethanone] was tested. Which pIC50 (BRD4 BD1 [2]) did it give?
Its pIC50 is 5.40.

What about the IC50 (MYC) of the same compound?
The IC50 was 0.35 µM.

With `CC(=O)N1CCc2c(c(Nc3c(F)ccc(-c4cnn(C)c4)c3F)nn2[C@H]2CCOC2)C1` [Example 280, (S)-1-[3-[2,6-difluoro-3-(1-methylpyrazol-4-yl)anilino]-1-tetrahydrofuran-3-yl-6,7-dihydro-4H-pyrazolo[4,3-c]pyridin-5-yl]ethanone] as the compound, how does the pIC50 (BRD4 BD1 [2]) read?
The pIC50 was 5.10.

And the IC50 (MYC)?
The IC50 was 0.46 µM.

With `CC(=O)N1CCc2c(c(Nc3ccc(-c4ccn(C)n4)cc3)nn2CC2CC2)C1` [Example 103, 1-(5-acetyl-1-tetrahydrofuran-3-yl-6,7-dihydro-4H-pyrazolo[4,3-c]pyridin-3-yl)-4-methyl-6-(1-methylpyrazol-4-yl)-3,4-dihydro-2H-quinoline-7-carbonitrile] as the compound, how does the pIC50 (BRD4 BD1 [2]) read?
Its pIC50 is 5.42.

And the IC50 (MYC)?
Its IC50 is 0.24 µM.

How did the pIC50 (BRD4 BD1 [1]) turn out when `CC(=O)N1CCc2c(c(N3CCCc4cc(-c5ncn(C)n5)ccc43)nn2C2COC2)C1` [Example 41, 1-[3-[6-(1-methyl-1,2,4-triazol-3-yl)-3,4-dihydro-2H-quinolin-1-yl]-1-(oxetan-3-yl)-6,7-dihydro-4H-pyrazolo[4,3-c]pyridin-5-yl]ethanone] was run?
Its pIC50 is under 4.70.

With `CC(=O)N1CCc2c(c(N3CCCc4cc(-c5c(C)cnn5C)ccc43)nn2C2COC2)C1` [Example 20, 1-[3-[6-(2,4-dimethylpyrazol-3-yl)-3,4-dihydro-2H-quinolin-1-yl]-1-(oxetan-3-yl)-6,7-dihydro-4H-pyrazolo[4,3-c]pyridin-5-yl]ethanone] as the compound, how does the pIC50 (BRD4 BD1 [1]) read?
Its pIC50 is under 4.70.

What does the source list for `CC(=O)N1CCc2c(c(Nc3ccc(-c4c[nH]nc4C(F)(F)F)cc3F)nn2C2CCOC2)C1` (stereo not shown) [Example 310, 1-[3-[2-fluoro-4-[3-(trifluoromethyl)-1H-pyrazol-4-yl]anilino]-1-tetrahydrofuran-3-yl-6,7-dihydro-4H-pyrazolo[4,3-c]pyridin-5-yl]ethanone]?
pIC50 (BRD4 BD1 [2]): 5.54; IC50 (MYC): 0.26 µM

With `CC(=O)N1CCc2c(c(Nc3ccc(-c4cnn(C)c4)c(Cl)c3)nn2C2CCOC2)C1` (stereo not shown) [Example 294, 1-[3-[3-chloro-4-(1-methylpyrazol-4-yl)anilino]-1-tetrahydrofuran-3-yl-6,7-dihydro-4H-pyrazolo[4,3-c]pyridin-5-yl]ethanone] as the compound, how does the pIC50 (BRD4 BD1 [2]) read?
The pIC50 was 5.92.

And the IC50 (MYC)?
The IC50 was 0.13 µM.

What does the source list for `CC(=O)N1CCc2c(c(Nc3ccc(-c4cnn(C)c4)cc3)nn2C[C@H]2C[C@@H]2F)C1` (stereo in doubt) [Example 181, 1-[3-[5-[1-methyl-3-(trifluoromethyl)pyrazol-4-yl]indolin-1-yl]-1-(oxetan-3-yl)-6,7-dihydro-4H-pyrazolo[4,3-c]pyridin-5-yl]ethanone]?
pIC50 (BRD4 BD1 [2]): 5.40; IC50 (MYC): 0.31 µM

How did the pIC50 (BRD4 BD1 [2]) turn out when `CC(=O)N1CCc2c(c(Nc3ccc(-c4cn(C)nc4C(F)(F)F)cc3F)nn2C2COC2)C1` [Example 301, 1-[3-[2-fluoro-4-[1-methyl-3-(trifluoromethyl)pyrazol-4-yl]anilino]-1-(oxetan-3-yl)-6,7-dihydro-4H-pyrazolo[4,3-c]pyridin-5-yl]ethanone] was run?
The pIC50 was 5.27.

What about the IC50 (MYC) of the same compound?
Its IC50 is 0.24 µM.

What does the source list for `CC(=O)Nc1ccc(-c2ccc(Nc3nn(C)c4c3CN(C(C)=O)CC4)cc2)cn1` [Example 163, 3-(7-(difluoromethyl)-6-(6-(methylcarbamoyl)pyridin-3-yl)-3,4-dihydroquinolin-1(2H)-yl)-N-methyl-1-(tetrahydro-2H-pyran-4-yl)-6,7-dihydro-1H-pyrazolo[4,3-c]pyridine-5(4H)-carboxamide]?
pIC50 (BRD4 BD1 [2]): 5.38; IC50 (MYC): 0.44 µM

With `CC(=O)N1CCc2c(c(N3CCCc4cc(-c5cnn(C(F)F)c5)ccc43)nn2C2COC2)C1` [Example 37, 1-[3-[6-[1-(difluoromethyl)pyrazol-4-yl]-3,4-dihydro-2H-quinolin-1-yl]-1-(oxetan-3-yl)-6,7-dihydro-4H-pyrazolo[4,3-c]pyridin-5-yl]ethanone] as the compound, how does the pIC50 (BRD4 BD1 [1]) read?
The pIC50 was under 4.70.

How did the pIC50 (BRD4 BD1 [2]) turn out when `CC(=O)N1CCc2c(c(Nc3ccc(-c4ccccc4F)cc3)nn2CC2CC2)C1` [Example 94] was run?
Its pIC50 is 5.45.

And the IC50 (MYC)?
The IC50 was 0.38 µM.

With `CC(=O)N1CCc2c(c(Nc3cc(F)c(F)c(-c4cnn(C)c4)c3)nn2C2CCOC2)C1` (stereo not shown) [Example 296, 1-[3-[3,4-difluoro-5-(1-methylpyrazol-4-yl)anilino]-1-tetrahydrofuran-3-yl-6,7-dihydro-4H-pyrazolo[4,3-c]pyridin-5-yl]ethanone] as the compound, how does the pIC50 (BRD4 BD1 [2]) read?
The pIC50 was 5.71.

And the IC50 (MYC)?
Its IC50 is 0.48 µM.

How did the pIC50 (BRD4 BD1 [2]) turn out when `CNC(=O)N1CCc2c(c(Nc3cc(C(F)F)c(-c4cnn(C)c4)cc3F)nn2C2CCOCC2)C1` [Example 260, 3-[7-ethyl-6-(1-methylpyrazol-4-yl)-3,4-dihydro-2H-quinolin-1-yl]-N-methyl-1-tetrahydropyran-4-yl-6,7-dihydro-4H-pyrazolo[4,3-c]pyridine-5-carboxamide] was run?
The pIC50 was 4.93.

And the IC50 (MYC)?
The IC50 was 0.03 µM.
